# Data: PubChem BioAssay AID686978 (National Center for Advancing Translational Sciences (NCATS), 2013)
# Among all 420,000 compounds or so, about 64,000 (15%) were called active. The inconclusive results got no clear call from the source; some entries with a clear call stand among them for comparison. The call rests on the fitted dose curve; in most records, active means well fitted inhibition curve with a large enough effect; inconclusive means small, poorly fitted or top-dose-only effect; inactive means flat fitted curve, though single readings scatter. No potency is given beside an inconclusive call; the fits are too rough.
# Assay: qHTS for Inhibitors of human tyrosyl-DNA phosphodiesterase 1 (TDP1): qHTS in cells in absence of CPT; further: nearly all actives have a fitted effect of over 55% in size
# Conditions: DT40 Tdp1-/- hTDP1 cells, no CPT, ATP luminescence, 48 h; activity change, negative = growth inhibition: at 46.2 µM (top of the series) unless noted
# Method in brief: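 Stably hTDP1-transfected Tdp1-null chicken DT40 cells were treated with library compounds minus camptothecin and grown for at least 48 hr at 37 °C, after which cellular ATP was quantified by luminescence.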
# On the % scale 0 is the no-effect control and ±100 the full control effect; potency means the concentration at half of the fitted maximal effect; tags describe the fitted curve by direction and shape.
SMILES,"activity change, negative = growth inhibition",Potency
CC1(C)CC(=O)C2=C(C1)Nc1nc(SCCN3CCOCC3)[nH]c(=O)c1C2c1cccs1 (stereo not given),inactive: -1.33%,–
Cc1ccc(C)c(NC(=O)C2CCC(C)(C(=O)O)C2(C)C)c1 (stereo not given),inactive: -7.31%,–
CC1CC(C(F)F)n2nc(C(=O)Nc3sc4c(c3C#N)CCC(C(C)(C)C)C4)nc2N1 (stereo not given),–,"inconclusive [inhibitor, single point]"
O=C(Nc1nnc(SCc2ccc(F)cc2)s1)c1ccccn1,–,active: 5.17 µM
Clc1ccc(CSc2nc3ncccc3[nH]2)cc1,–,"inconclusive [inhibitor, single point]"
Cc1nn(Cc2ccccc2)c(C)c1C(=O)OCC(=O)c1cc(C)n(C2CC2)c1C,–,active: 18.4 µM
CCC(=O)N1CCc2cc(OC)c(OC)cc2C1COc1ccc(C(=O)OC)cc1 (stereo not given),–,"inconclusive [inhibitor, partial curve]"
Cc1ccc(C(C)C)c(OCc2nnc(SCC(=O)Nc3ncc(C)s3)n2C)c1,–,"inconclusive [inhibitor, single point]"
Cc1ccc(NC(=O)Cc2ccc(NC(=O)N3CCCCc4ccccc43)cc2)cc1,–,active: 23.1 µM
O=C(O)CCN1c2ccccc2Sc2ccccc21,inactive: -15.3%,–
CC(C)=NNc1cnnc2ccc([N+](=O)[O-])cc12,–,active: 13 µM
COc1ccc(Cl)cc1NC(=O)CN(C)CC(=O)NCc1cccs1,–,"inconclusive [inhibitor, partial curve, poor fit]"
O=C(NC(=S)Nc1ccccc1)c1cc(-c2ccccc2)nc2ccccc12,–,"inconclusive [inhibitor, single point]"
COc1ccc2c3n(nc2c1)CCN=C3c1cc(Cl)c(N)c(Cl)c1,–,active: 16.4 µM
COCCCNC(=S)N/N=C/c1ccc(O)cc1O,–,"inconclusive [inhibitor, full curve, poor fit]"
COc1ccc(OC)c(/C=N/NC(=O)CCc2ccc(O)c(O)c2)c1,–,"inconclusive [inhibitor, single point]"
Cc1ccc(C(=O)Nc2cccc(-c3nc(CNC(=O)[C@@H]4C[C@@H](C)NC(=S)N4)c(C)o3)c2)s1,–,"inconclusive [inhibitor, partial curve, poor fit]"
Cc1ccc(NC(=O)CN2C(=O)S/C(=C\c3cc(Cl)c(OCC(=O)O)c(Cl)c3)C2=O)cc1,inactive: -9.14%,–
Cc1cc(O)c(S(=O)(=O)c2ccccc2)c(C)c1NS(=O)(=O)c1ccccc1,–,"inconclusive [inhibitor, single point]"
COc1cc(-c2nn3c(-c4ccccc4)nnc3s2)cc(OC)c1OC,–,"inconclusive [inhibitor, partial curve]"
